These results are taken from the supplement of paper PMC12645437, “Orthogonal IMiD-Degron Pairs Induce Selective Protein Degradation in Cells” (ACS Chemical Biology, 2025).

The list shows a part of the results.
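Note: jurkat cells carrying a lentiviral library of mutant zinc finger degrons fused to EGFP plus mCherry, mCherry+ cells FACS sorted, degron abundance counted by next-generation sequencing.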

The target of this experiment is no compound (DMSO). Briefly: log2 fold change of degron read counts, EGFP-low vs EGFP+ sorted cells; higher = lower degron-EGFP level without compound (poor expression or instability). As to conditions: compound: DMSO control; 18 h.
Regarding LRCNQCGFHCTQKGNLLRHIKL, the “log2 fold change of degron read counts” value worked out at 1.34.

As for LACEICGFRCTQKGNLLRHIKL, the “log2 fold change of degron read counts” value is -0.0987.

As to FNCEQCGAFFTQKGNLLRHIKL, the “log2 fold change of degron read counts” value is -1.2.

In the case of FLCNQCGAKFTQKGNLLRHIKL, the “log2 fold change of degron read counts” value was -0.654.

As to FLCEVCGANFTQKGNLLRHIKL, the “log2 fold change of degron read counts” value is -1.28.

As to FNCNQCGRYFTQKGNLLRHIKL, the “log2 fold change of degron read counts” value was 1.27.

Regarding FECNQCGARFTQKGNLLRHIKL, the “log2 fold change of degron read counts” value was -2.15.

Regarding FGCDICGAFFTQKGNLLRHIKL, the “log2 fold change of degron read counts” value is -0.554.

For the sequence FTCEVCGAHFTQKGNLLRHIKL, the “log2 fold change of degron read counts” value is -1.44.

As to FYCNQCGHSFTQKGNLLRHIKL, the “log2 fold change of degron read counts” value is -0.429.

In the case of FECPVCGAQFTQKGNLLRHIKL, the “log2 fold change of degron read counts” value is -0.954.

As to FWCPQCGAYFTQKGNLLRHIKL, the “log2 fold change of degron read counts” value was 0.829.

As for FLCPVCGAPFTQKGNLLRHIKL, the “log2 fold change of degron read counts” value turned out to be 0.601.

Regarding FACPQCGAGFTQKGNLLRHIKL, the “log2 fold change of degron read counts” value was -0.567.

As for FACEVCGAGFTQKGNLLRHIKL, the “log2 fold change of degron read counts” value is -1.53.

For the sequence FYCDICGAGFTQKGNLLRHIKL, the “log2 fold change of degron read counts” value is -0.733.

For FCCPICGHRFTQKGNLLRHIKL, the “log2 fold change of degron read counts” value was found to be 0.16.

FQCNICGAPFTQKGNLLRHIKL: the “log2 fold change of degron read counts” value was 0.118.

In the case of LRCEICGFMCTQKGNLLRHIKL, the “log2 fold change of degron read counts” value amounted to 0.736.

Regarding LTCNQCGFCCTQKGNLLRHIKL, the “log2 fold change of degron read counts” value is 0.612.

With FMCSVCGHCFTQKGNLLRHIKL, the “log2 fold change of degron read counts” value was -0.0785.

Consider FLCPICGAFFTQKGNLLRHIKL, for which the “log2 fold change of degron read counts” value came out at 0.873.

In the case of FGCNQCGAEFTQKGNLLRHIKL, the “log2 fold change of degron read counts” value is -0.28.

FLCEICGAWFTQKGNLLRHIKL: the “log2 fold change of degron read counts” value is -0.558.

As for FRCDICGAFFTQKGNLLRHIKL, the “log2 fold change of degron read counts” value is -1.07.

FVCNQCGRYFTQKGNLLRHIKL: the “log2 fold change of degron read counts” value was determined as 0.229.

Turning to LLCEICGFTCTQKGNLLRHIKL, the “log2 fold change of degron read counts” value is -0.0491.

In the case of FLCPICGHPFTQKGNLLRHIKL, the “log2 fold change of degron read counts” value is -0.14.

In the case of FSCDQCGAIFTQKGNLLRHIKL, the “log2 fold change of degron read counts” value is -0.399.

FSCPICGHIFTQKGNLLRHIKL: the “log2 fold change of degron read counts” value is 0.243.

In the case of FLCPICGHAFTQKGNLLRHIKL, the “log2 fold change of degron read counts” value was -0.403.

Take FMCPICGHMFTQKGNLLRHIKL: the “log2 fold change of degron read counts” value amounted to 0.921.

Take FCCPICGRDFTQKGNLLRHIKL: the “log2 fold change of degron read counts” value is -0.107.

With FQCNQCGHSFTQKGNLLRHIKL, the “log2 fold change of degron read counts” value was -0.67.

As for FACEICGRVFTQKGNLLRHIKL, the “log2 fold change of degron read counts” value is -0.855.

Take FFCSVCGHMFTQKGNLLRHIKL: the “log2 fold change of degron read counts” value turned out to be 1.17.

As for FQCEICGREFTQKGNLLRHIKL, the “log2 fold change of degron read counts” value was -2.9.

On to FDCSVCGHNFTQKGNLLRHIKL, for which the “log2 fold change of degron read counts” value was -0.0516.

FICSVCGHHFTQKGNLLRHIKL: the “log2 fold change of degron read counts” value is -0.141.

Take FCCNVCGAYFTQKGNLLRHIKL: the “log2 fold change of degron read counts” value turned out to be 0.291.

With FFCDQCGAYFTQKGNLLRHIKL, the “log2 fold change of degron read counts” value is -0.305.

FTCEVCGAKFTQKGNLLRHIKL: the “log2 fold change of degron read counts” value is -2.06.

For FRCNQCGAKFTQKGNLLRHIKL, the “log2 fold change of degron read counts” value is -0.122.

Regarding FCCDICGAHFTQKGNLLRHIKL, the “log2 fold change of degron read counts” value was -1.73.

Regarding FKCNQCGRMFTQKGNLLRHIKL, the “log2 fold change of degron read counts” value was -0.487.

Consider FGCNVCGASFTQKGNLLRHIKL, for which the “log2 fold change of degron read counts” value was -1.52.

Turning to FWCEVCGAHFTQKGNLLRHIKL, the “log2 fold change of degron read counts” value was -0.475.

As to FQCPVCGAAFTQKGNLLRHIKL, the “log2 fold change of degron read counts” value is -0.0157.

As to FTCPICGADFTQKGNLLRHIKL, the “log2 fold change of degron read counts” value was -0.755.

Regarding FFCEVCGAFFTQKGNLLRHIKL, the “log2 fold change of degron read counts” value is -0.242.
